In all, about 110,000 compounds were measured (“z-score”: median about -0.1, highest 2% from about 2 on). The list shows a part of the results.
molecular target: Metabotropic glutamate receptor 8 (Rattus norvegicus) (UniProt P70579); test: mGluR8 Gi/Go-coupled signaling modulation – cell-based, rat, thallium flux, HTS, primary screen (AID 488969); conditions: HEK293 rat mGluR8, GIRK (G protein-gated inwardly rectifying potassium channel) thallium flux, FluoZin2; at 10 µM; stronger effect = higher value; submaximal glutamate (EC20) added with thallium
Sequence of UniProt P70579 (P70579 whole entry, looked up): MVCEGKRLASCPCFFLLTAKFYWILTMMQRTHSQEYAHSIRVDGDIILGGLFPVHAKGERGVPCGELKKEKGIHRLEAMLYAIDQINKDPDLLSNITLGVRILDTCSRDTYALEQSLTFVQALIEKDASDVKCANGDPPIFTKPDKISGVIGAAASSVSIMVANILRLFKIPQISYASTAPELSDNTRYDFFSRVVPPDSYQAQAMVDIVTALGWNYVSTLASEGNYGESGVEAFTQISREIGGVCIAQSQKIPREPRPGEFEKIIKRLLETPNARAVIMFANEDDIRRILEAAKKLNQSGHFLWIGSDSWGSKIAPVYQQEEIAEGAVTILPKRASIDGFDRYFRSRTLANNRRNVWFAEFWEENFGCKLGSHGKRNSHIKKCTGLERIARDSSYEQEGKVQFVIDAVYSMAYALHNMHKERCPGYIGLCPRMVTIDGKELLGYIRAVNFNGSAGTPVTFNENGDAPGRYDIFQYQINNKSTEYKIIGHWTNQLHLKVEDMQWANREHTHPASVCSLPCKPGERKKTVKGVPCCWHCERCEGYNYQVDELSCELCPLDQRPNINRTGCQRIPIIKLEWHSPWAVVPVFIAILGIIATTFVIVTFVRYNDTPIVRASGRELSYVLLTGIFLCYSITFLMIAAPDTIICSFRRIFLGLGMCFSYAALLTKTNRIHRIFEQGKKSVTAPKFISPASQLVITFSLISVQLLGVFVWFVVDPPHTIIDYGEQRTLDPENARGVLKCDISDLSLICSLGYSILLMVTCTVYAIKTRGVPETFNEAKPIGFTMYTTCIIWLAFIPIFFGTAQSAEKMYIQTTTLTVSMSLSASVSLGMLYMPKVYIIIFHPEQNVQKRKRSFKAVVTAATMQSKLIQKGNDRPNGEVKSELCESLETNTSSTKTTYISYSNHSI

| SMILES | z-score |
| --- | --- |
| O=C(COC(=O)Cc1c(Cl)cccc1Cl)Nc1ccc(OC(F)(F)F)cc1 | 0.262 |
| COC(=O)c1ccccc1NC(=O)c1c(Br)cnn1C | 0.28 |
| O=c1c2c(-c3cccs3)csc2[nH]c(=S)n1-c1ccccc1 | 1.8 |
| C/C(N)=C(/C#N)C(=O)COC(=O)c1ccc(C)c(S(=O)(=O)N2CCCCC2)c1 | -0.308 |
| Cc1ccc(S(=O)(=O)N2CCN(C(=O)Cc3ccccc3)CC2)cc1 | -0.0535 |
| CCOC(=O)NC(=O)COC(=O)Cc1cc(OC)c(OC)c(OC)c1 | -1.05 |
| COc1ccc(C(=O)NCCc2nnc(SCC(=O)Nc3ccccc3)n2C)cc1 | -0.936 |
| O=C(NC(NCC1CCCO1)C(Cl)(Cl)Cl)c1cccc2ccccc12 (centres undefined) | -0.0963 |
| Cc1ccnc(SCC(=O)N2CCN(C(c3ccccc3)c3ccccc3)CC2)n1 | -0.763 |
| COCc1nnc(NC(=O)CCCCCN2C(=O)c3ccccc3C2=O)s1 | -0.344 |
| Cc1c(Cl)cccc1NC(=S)NCc1cccn1C | 0.262 |
| CCS(=O)(=O)c1nc(S(=O)(=O)c2ccc(Cl)cc2)c(N2CCc3ccccc3C2)s1 | -0.0847 |
| CC1=C(C(=O)Nc2ccc([N+](=O)[O-])cc2)C(c2cccc(C(F)(F)F)c2)NC(=S)N1c1ccccc1 (centres undefined) | 0.425 |
| CN(CC(=O)NCc1cccnc1)S(=O)(=O)c1ccc2c(c1)c(=O)n(C)c(=O)n2C | -0.043 |
| CCOc1ccc(N2C(=O)CC(N3CCC(NC(=O)Nc4ccccc4)CC3)C2=O)cc1 (centres undefined) | -0.945 |
| CCSc1nc2ccccc2n1C(=O)/C=C\c1ccc(OC)c(OC)c1 | -0.365 |
| CC(=O)c1c(C)[nH]c(C(=O)NCc2cccs2)c1C | 0.148 |
| COc1ccccc1CNC(=O)CSc1nnc2c(Cl)cc(C(F)(F)F)cn12 | 1.74 |
| O=S(=O)(N1CCCCC1)N1CCN(c2ccc(F)cc2)CC1 | -0.249 |
| COc1ccc(C)cc1Nc1nc(-c2c(C)[nH]c3ccccc23)cs1 | -0.236 |
| CCC(C)C(=O)Nc1nc(-c2ccc3c(c2)NC(=O)CO3)cs1 (centres undefined) | -1.04 |
| CCOc1cc(CNCCSc2nnnn2C)cc(Br)c1OCc1ccc(F)cc1 | 0.297 |
| COc1ccc(CN(C(=S)Nc2ccccc2)C2CC(=O)N(c3ccccc3)C2=O)cc1 (centres undefined) | -0.189 |
| O=C(Nc1ccccc1)Nc1nnc(/C=C/c2ccccc2Cl)s1 | -0.529 |
| Cc1ccc(CN2C(=O)CCC2C(=O)NCc2ccc3c(c2)OCO3)cc1 (centres undefined) | -0.431 |
| Cc1ccc(NC(=O)CN2C(=O)N/C(=C/c3ccc(N4CCOCC4)cc3)C2=O)cc1 | -0.234 |
| CCOc1cc(C(=S)N2CCOCC2)ccc1OS(=O)(=O)c1ccccc1 | -0.19 |
| COc1cc(SC)ccc1C(=O)NCCOc1ccc(Cl)cc1 | -0.243 |
| CCOc1ccc(S(=O)(=O)N(C)c2ccc(OCC(=O)Nc3nc4ccccc4s3)cc2)cc1 | 0.214 |
